In this series the test system is ATP. Description: switch fluorescence ratio, 500 uM ATP over buffer (Cy3 cluster intensity, sum of 5 cycles each) (fold (ratio)); higher = stronger signal-on switching upon ATP binding; sequences stand for … in TCGTCGGCAGCGTCAGATGTGTATAAGAGACAGTTTTTTTTTTTTTTTTTTTTTTTTT…TC. To be noted: aptamer strand: ATP DNA aptamer (quencher-CACCTGGGGGAGTATTGCGGAGGAAGG + anchor), 100 nM annealed; ATP concentration: 500 uM; one replicate. The method, boiled down: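 Clusters carrying Cy3-labelled switching strands on a modified Illumina MiSeq flow-cell were annealed to 100 nM quencher-labelled ATP aptamer and imaged in selection buffer. They were imaged again after 15 min with 500 uM ATP at 22 °C, over five buffer/ATP cycles with NaOH stripping and re-annealing in between. For each cluster, the fluorescence ratio is the summed Cy3 intensity of the target cycles divided by that of the buffer cycles, averaged per switch-domain sequence. Clusters outside 100-1000 RFU were left out.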

Sequences with one replicate were seen in a single cluster, so their values are uncertain.
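Also: ATP exposure 15 min at 22 °C before imaging.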

Consider GTCGGGCAGC, for which the switch fluorescence ratio turned out to be 1.01.
The same measure for AACCACCAAA: 1.08; for TAATTTCCGA: 1.03.
In the case of GGTTGACTTT it was 0.955; in that of ATACAGTACC, 1.5; in that of TATTCGTGAG, 1.01.
In the case of CGGGTCTTTA it was 1.
Turning to GAAAGGCCA, the switch fluorescence ratio was 1.07.
Turning to TTATCGCAAG, the switch fluorescence ratio amounted to 1.22.
The same measure for TCATTGCCCT: 0.995; for GCAGAGGACT: 1.06.
In the case of GTGGCGTGAT it was 1.03.
The same measure for CAATCTGTGC: 0.938; for GGATGACAGT: 1.04.
For the sequence GAATCGGGTC, the switch fluorescence ratio amounted to 0.935.
On to ATCTTCAACG, for which the switch fluorescence ratio was determined as 1.09.
The same measure for TTTATGGCCG: 0.972; for CGCCCTATGT: 1.04; for TGGGCAGCCT: 0.966.
As for CGTACGATAC, the switch fluorescence ratio is 2.21.
In the case of GAATCAAACA it was 0.99.
In the case of TAGCTGGGTC it was 1; in that of AATGGAGAGA, 0.993; in that of CGGTGCAAAC, 4.08.
Consider TTCGCGGCGG, for which the switch fluorescence ratio worked out at 1.01.
The same measure for TACGTCGTAG: 1.02.
In the case of GTGGGAGACG it was 1.05; in that of TTAGTTTCTC, 0.954.
As for CCGCGTCTTC, the switch fluorescence ratio amounted to 1.15.
The same measure for AAGCGGGCCC: 0.959; for TTACGTAAG: 1.08.
ATTGAATCAA: the switch fluorescence ratio is 0.992.
Regarding TGGTTGAAGC, the switch fluorescence ratio was 0.971.
In the case of GCGTCATGGG it was 0.963; in that of TAGCAGAACT, 1.19; in that of CATGCTAGCT, 0.997.
As to CTATGACGGG, the switch fluorescence ratio was determined as 0.99.
The same measure for ATAGAAAAGC: 0.951; for TATTAGTACG: 0.976.
Regarding TCTGTGTGTT, the switch fluorescence ratio came out at 1.05.
In the case of GGATGGTAGG it was 0.986; in that of GACCAAAAGC, 1.02.
In the case of TTGACTGATA it was 1.02; in that of GGCCGCGGAT, 1.08; in that of CTCCAATAAG, 1.31.
Consider TTCGATTATC, for which the switch fluorescence ratio was determined as 1.
In the case of CGTGCACCTG, the switch fluorescence ratio was determined as 0.949.
In the case of CTTTACCGGA it was 0.955; in that of TGAGGGTCTC, 0.98.
As to TCGAAGCGG, the switch fluorescence ratio amounted to 1.04.
In the case of TAGGAAGTGA it was 0.991; in that of ATCAACTCAC, 1.16; in that of GTAATACGGG, 1.39.
In the case of TAAGGTCTCT it was 1.02.
Regarding TCACTCTCA, the switch fluorescence ratio stood at 0.954.
In the case of CGAATGCCCA it was 1.01; in that of ACTCCGAGCG, 1.72.
In the case of TGTACAAGGG it was 1.02; in that of CGACGTTAAG, 0.959; in that of CATCGGGGCT, 1.
The same measure for GTCTGCAGAA: 0.981; for GGTAATGTAA: 1.09; for ACGGCTGAAG: 1.02.
Turning to GGGGACTTGA, the switch fluorescence ratio came to 0.995.
The same measure for ATCGCATATT: 1.12.
As for GCATAGGCAG, the switch fluorescence ratio amounted to 0.981.
The same measure for AGACTCCTCT: 1.05.
The same measure for AGTCATGGG: 0.986.
In the case of AAATGGGACG it was 1.04; in that of TGTCGACCCC, 1.04; in that of TGACGATGAT, 0.963.
On to GCTTGTGACT, for which the switch fluorescence ratio turned out to be 0.94.
The same measure for GGTTTTCAGG: 1.01; for CTGAGTAGTC: 1.01.
In the case of GGTCTTAATG it was 1.02; in that of TCCGGATTGC, 2; in that of TACGGCTTAT, 0.961.
In the case of ATTCATGTCC it was 1.

For the origin of these results see the supplement of paper PMC10126150.
